# Source: the supplement of paper PMC8728848
# Some of the results follow.
# B1: Dectin-1 (Mus musculus), Q6QLQ4 (protein)
# chain: GHNSGRNPEEKDNFLSRNKENHKPTESSLDEKVAPSKASQTTGGFSQPCLPNWIMHGKSCYLFSFSGNSWYGSKRHCSQLGAHLLKIDNSKEFEFIESQTSSHRINAFWIGLSRNQSEGPWFWEDGSAFFPNSFQVRNTAPQESLLHNCVWIHGSEVYNQICNTSSYSICEKEL
# How the values were obtained:
# Test in all cases: glycan array binding signal (z-score within array); higher = stronger binding
# Settings in all cases: glycan notation: IUPAC condensed, linker removed
# Gal(b1-3)GlcNAc = target: Gal(b1-3)GlcNAc
# Outline: (§1)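 Glycan array data were curated from 3228 arrays in the Consortium for Functional Glycomics database and kept only where the protein sequence was available. Glycan names were converted to IUPAC-condensed notation, and columns mapping to the same glycan were averaged. The binding signal is a within-array Z-score, averaged across arrays of the same protein sequence at different concentrations or buffers and across linkers. Negative Z-scores can be read as non-binding.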
# [1] = target: Gal(b1-3)GlcNAc(b1-3)Gal(b1-4)Glc
# Outline: as §1
# [2] = target: Gal(b1-3)GlcNAc(b1-3)Gal(b1-4)GlcNAc(b1-3)Gal(b1-4)Glc
# Outline: as §1
# [3] = target: Gal(b1-3)GlcNAc(b1-3)Gal(b1-4)GlcNAc(b1-6)[Gal(b1-3)GlcNAc(b1-3)]Gal(b1-4)Glc
# Outline: as §1
# [4] = target: Gal(b1-3)GlcNAc(b1-3)Gal(b1-4)[Fuc(a1-3)]GlcNAc(b1-3)Gal(b1-4)Glc
# Outline: as §1
# [5] = target: Gal(b1-3)GlcNAc(b1-3)Gal(b1-4)[Fuc(a1-3)]GlcNAc(b1-6)[Gal(b1-3)GlcNAc(b1-3)]Gal(b1-4)Glc
# Outline: as §1
# [6] = target: Gal(b1-3)GlcNAc(b1-3)[Fuc(a1-3)[Gal(b1-4)]GlcNAc(b1-6)]Gal(b1-4)Glc
# Outline: as §1
# [7] = target: Gal(b1-3)GlcNAc(b1-3)[Fuc(a1-3)[Gal(b1-4)]GlcNAc(b1-6)]Gal(b1-4)]GlcNAc(b1-6)[Gal(b1-4)]GlcNAc(b1-3)]Gal(b1-4)Glc
# Outline: as §1
# [8] = target: Gal(b1-3)GlcNAc(b1-3)[Gal(b1-4)GlcNAc(b1-6)]Gal(b1-4)Glc
# Outline: as §1
# [9] = target: Gal(b1-3)GlcNAc(b1-3)[Gal(b1-4)GlcNAc(b1-6)]Gal(b1-4)GlcNAc(b1-6)[Gal(b1-3)GlcNAc(b1-3)]Gal(b1-4)Glc
# Outline: as §1
# [10] = target: Gal(b1-3)[Fuc(a1-4)]GlcNAc
# Outline: as §1
# [11] = target: Gal(b1-3)[Fuc(a1-4)]GlcNAc(b1-3)Gal(b1-4)Glc
# Outline: as §1
# [12] = target: Gal(b1-3)[Fuc(a1-4)]GlcNAc(b1-3)Gal(b1-4)[Fuc(a1-3)]Glc
# Outline: as §1
# [13] = target: Gal(b1-3)[Fuc(a1-4)]GlcNAc(b1-3)Gal(b1-4)[Fuc(a1-3)]GlcNAc(b1-3)Gal(b1-4)Glc
# Outline: as §1
# [14] = target: Gal(b1-3)[Fuc(a1-4)]GlcNAc(b1-3)Gal(b1-4)[Fuc(a1-3)]GlcNAc(b1-6)[Gal(b1-3)[Fuc(a1-4)]GlcNAc(b1-3)]Gal(b1-4)Glc
# Outline: as §1
# [15] = target: Gal(b1-3)[Fuc(a1-4)]GlcNAc(b1-3)[Fuc(a1-3)[Gal(b1-4)]GlcNAc(b1-6)]Gal(b1-4)Glc
# Outline: as §1
# [16] = target: Gal(b1-3)[Neu5Ac(a2-6)]GlcNAc(b1-3)Gal(b1-4)Glc
# Outline: as §1
# Gal(b1-4)Glc = target: Gal(b1-4)Glc
# Outline: as §1
# Gal(b1-4)GlcNAc = target: Gal(b1-4)GlcNAc
# Outline: as §1
# [17] = target: Gal(b1-4)GlcNAc(b1-2)Man(a1-3)[Gal(b1-4)GlcNAc(b1-2)Man(a1-6)]Man(b1-4)GlcNAc(b1-4)GlcNAc
# Outline: as §1
# [18] = target: Gal(b1-4)GlcNAc(b1-2)Man(a1-3)[Gal(b1-4)GlcNAc(b1-2)Man(a1-6)]Man(b1-4)GlcNAc(b1-4)[Fuc(a1-6)]GlcNAc
# Outline: as §1
# [19] = target: Gal(b1-4)GlcNAc(b1-2)Man(a1-3)[Gal(b1-4)GlcNAc(b1-2)Man(a1-6)][GlcNAc(b1-4)]Man(b1-4)GlcNAc(b1-4)[Fuc(a1-6)]GlcNAc
# Outline: as §1
# [20] = target: Gal(b1-4)GlcNAc(b1-2)Man(a1-3)[Man(a1-6)]Man(b1-4)GlcNAc(b1-4)GlcNAc
# Outline: as §1
# [21] = target: Gal(b1-4)GlcNAc(b1-2)Man(a1-6)[GlcNAc(b1-2)Man(a1-3)]Man(b1-4)GlcNAc(b1-4)[Fuc(a1-6)]GlcNAc
# Outline: as §1
# [22] = target: Gal(b1-4)GlcNAc(b1-2)Man(a1-6)[Man(a1-3)]Man(b1-4)GlcNAc(b1-4)GlcNAc
# Outline: as §1
# [23] = target: Gal(b1-4)GlcNAc(b1-2)Man(a1-6)[Man(a1-3)]Man(b1-4)GlcNAc(b1-4)[Fuc(a1-6)]GlcNAc
# Outline: as §1
# [24] = target: Gal(b1-4)GlcNAc(b1-2)[Gal(b1-4)GlcNAc(b1-4)]Man(a1-3)[Fuc(a1-3)[Gal(b1-4)]GlcNAc(b1-2)Man(a1-6)]Man(b1-4)GlcNAc(b1-4)GlcNAc
# Outline: as §1
# [25] = target: Gal(b1-4)GlcNAc(b1-2)[Gal(b1-4)GlcNAc(b1-4)]Man(a1-3)[Gal(b1-4)GlcNAc(b1-2)Man(a1-6)]Man(b1-4)GlcNAc(b1-4)GlcNAc
# Outline: as §1
# [26] = target: Gal(b1-4)GlcNAc(b1-2)[Gal(b1-4)GlcNAc(b1-4)]Man(a1-3)[Gal(b1-4)GlcNAc(b1-2)[Gal(b1-4)GlcNAc(b1-6)]Man(a1-6)]Man(b1-4)GlcNAc(b1-4)GlcNAc
# Outline: as §1
# Gal(b1-4)GlcNAc(b1-3)Fuc = target: Gal(b1-4)GlcNAc(b1-3)Fuc
# Outline: as §1
# [27] = target: Gal(b1-4)GlcNAc(b1-3)Gal(b1-4)Glc
# Outline: as §1
# [28] = target: Gal(b1-4)GlcNAc(b1-3)Gal(b1-4)GlcNAc(b1-3)Gal(b1-4)Glc
# Outline: as §1
# [29] = target: Gal(b1-4)GlcNAc(b1-3)[Fuc(a1-3)[Gal(b1-4)]GlcNAc(b1-6)]Gal(b1-4)Glc
# Outline: as §1
# [30] = target: Gal(b1-4)GlcNAc(b1-3)[Gal(b1-4)GlcNAc(b1-6)]Gal(b1-4)Glc
# Outline: as §1
# [31] = target: Gal(b1-4)GlcNAc(b1-3)[Gal(b1-4)GlcNAc(b1-6)]Gal(b1-4)GlcNAc(b1-3)Gal(b1-4)Glc
# Outline: as §1
# [32] = target: Gal(b1-4)GlcNAc(b1-3)[Gal(b1-4)GlcNAc(b1-6)]Gal(b1-4)GlcNAc(b1-3)[Gal(b1-4)GlcNAc(b1-6)]Gal(b1-4)GlcNAc(b1-3)Gal(b1-4)Glc
# Outline: as §1
# [33] = target: Gal(b1-4)GlcNAc(b1-3)[Gal(b1-4)GlcNAc(b1-6)]Gal(b1-4)GlcNAc(b1-3)[Gal(b1-4)GlcNAc(b1-6)]Gal(b1-4)GlcNAc(b1-3)[Gal(b1-4)GlcNAc(b1-6)]Gal(b1-4)GlcNAc(b1-3)Gal(b1-4)Glc
# Outline: as §1
# [34] = target: Gal(b1-4)GlcNAc(b1-3)[Gal(b1-4)GlcNAc(b1-6)]Gal(b1-4)GlcNAc(b1-3)[Gal(b1-4)GlcNAc(b1-6)]Gal(b1-4)GlcNAc(b1-3)[Gal(b1-4)GlcNAc(b1-6)]Gal(b1-4)GlcNAc(b1-3)[Gal(b1-4)GlcNAc(b1-6)]Gal(b1-4)GlcNAc(b1-3)Gal(b1-4)Glc
# Outline: as §1
# Gal(b1-6)GalNAc = target: Gal(b1-6)GalNAc
# Outline: as §1
# [35] = target: Gal3S(b1-3)GalNAc(b1-4)Gal3S(b1-4)Glc
# Outline: as §1
# [36] = target: Gal3S(b1-3)[Fuc(a1-4)]GlcNAc
# Outline: as §1
# [37] = target: Gal3S(b1-3)[Fuc(a1-4)]GlcNAc(b1-3)Gal(b1-4)Glc
# Outline: as §1
# Gal3S(b1-4)Glc = target: Gal3S(b1-4)Glc
# Outline: as §1
# Gal3S(b1-4)GlcNAc = target: Gal3S(b1-4)GlcNAc
# Outline: as §1
# [38] = target: Gal3S(b1-4)GlcNAc(b1-3)Gal
# Outline: as §1
binder,measurement,setting,value
B1,glycan array binding signal (z-score),Gal(b1-3)GlcNAc,-0.088
same,glycan array binding signal (z-score),[1],-0.043
same,glycan array binding signal (z-score),[2],-0.05
same,glycan array binding signal (z-score),[3],0.028
same,glycan array binding signal (z-score),[4],-0.056
same,glycan array binding signal (z-score),[5],-0.091
same,glycan array binding signal (z-score),[6],-0.091
same,glycan array binding signal (z-score),[7],0.102
same,glycan array binding signal (z-score),[8],-0.001
same,glycan array binding signal (z-score),[9],0.013
same,glycan array binding signal (z-score),[10],-0.079
same,glycan array binding signal (z-score),[11],-0.072
same,glycan array binding signal (z-score),[12],-0.068
same,glycan array binding signal (z-score),[13],-0.054
same,glycan array binding signal (z-score),[14],-0.091
same,glycan array binding signal (z-score),[15],-0.045
same,glycan array binding signal (z-score),[16],-0.088
same,glycan array binding signal (z-score),Gal(b1-4)Glc,-0.047
same,glycan array binding signal (z-score),Gal(b1-4)GlcNAc,-0.074
same,glycan array binding signal (z-score),[17],-0.076
same,glycan array binding signal (z-score),[18],-0.054
same,glycan array binding signal (z-score),[19],-0.091
same,glycan array binding signal (z-score),[20],-0.091
same,glycan array binding signal (z-score),[21],-0.091
same,glycan array binding signal (z-score),[22],-0.091
same,glycan array binding signal (z-score),[23],-0.091
same,glycan array binding signal (z-score),[24],-0.091
same,glycan array binding signal (z-score),[25],-0.067
same,glycan array binding signal (z-score),[26],-0.033
same,glycan array binding signal (z-score),Gal(b1-4)GlcNAc(b1-3)Fuc,-0.091
same,glycan array binding signal (z-score),[27],-0.061
same,glycan array binding signal (z-score),[28],0.056
same,glycan array binding signal (z-score),[29],-0.091
same,glycan array binding signal (z-score),[30],-0.084
same,glycan array binding signal (z-score),[31],-0.064
same,glycan array binding signal (z-score),[32],-0.061
same,glycan array binding signal (z-score),[33],-0.061
same,glycan array binding signal (z-score),[34],-0.08
same,glycan array binding signal (z-score),Gal(b1-6)GalNAc,-0.035
same,glycan array binding signal (z-score),[35],-0.059
same,glycan array binding signal (z-score),[36],-0.091
same,glycan array binding signal (z-score),[37],-0.091
same,glycan array binding signal (z-score),Gal3S(b1-4)Glc,-0.091
same,glycan array binding signal (z-score),Gal3S(b1-4)GlcNAc,-0.071
same,glycan array binding signal (z-score),[38],-0.091
